Results reported in PubChem BioAssay AID1508624 (National Center for Advancing Translational Sciences (NCATS), 2021).
Hit rate of the full screen: of about 48,000 compounds, about 120 (0.25%) were called active. Another 4% or so got no clear call; they are omitted. Calls come from the whole dose curve; as a rule, active = well fitted activation curve with a large enough effect; inconclusive = small, poorly fitted or top-dose-only effect, or another doubt; inactive = no such curve, though single readings can be large or run the other way. Some of the results follow.

Experiment: Primary qHTS for Identification of Small Molecule Activators of Huntingtin-Antisense Promoter Activity; note: nearly all actives have a fitted effect of over 55% in size
Settings: HEK293 HTT-AS promoter firefly luciferase reporter (activity 0% = vehicle and -100% = no light), 24 h; series mostly up to 57.5 µM; activity change, positive = activation: at the top concentration
Method in brief: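 HEK293 Fluc reporter, 2,500 cells/well, 24 h pre-culture; cpds up to 57.5 uM final, 24 h 37 degrees C; Dual-Glo, 10 min RT; normalized vehicle = 0%, zero RLU = -100%.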
Potency is the fitted concentration of half-maximal effect.

Compound | activity change, positive = activation | Potency
Cc1ccc(Cl)cc1N1CCN(c2ncnc3onc(-c4ccc(F)cc4)c23)CC1 | inactive: -1.42% | 
Cc1ccc(Cn2c(C)c(CNC(C)c3ccccc3)c(C(=O)O)c2C)cc1 (stereo not given) | inactive: -34.6% | 
CCOC(=O)N1CCN(C(=O)CN(c2cc(C)ccc2OC)S(=O)(=O)c2ccc(C)cc2)CC1 | inactive: -2.25% | 
O=C(O)CCCCC(CCSCc1ccccc1)SCc1ccccc1 (stereo not given) | inactive: -21.3% | 
Cc1ccc(-c2nnc(Nc3cccc(C(F)(F)F)c3)c3ccccc23)cc1S(=O)(=O)N1CCOCC1 | inactive: -36.3% | 
CCc1ccc(-n2nc(C)c3c(C(=O)Nc4cc(C)ccc4C)cc(C)nc32)cc1 | inactive: -15.3% | 
CCOc1ccccc1CNC(=O)C1CCCN(S(=O)(=O)c2ccc3c(ccn3C)c2)C1 (stereo not given) | inactive: -30.1% | 
CC1CCN(S(=O)(=O)c2nnc(NC(=O)c3cccc(F)c3)s2)CC1 | inactive: -29.2% | 
COC(=O)c1sc2cccc(F)c2c1S(=O)(=O)N1CCN(c2ccc(C)cc2C)CC1 | inactive: -26.6% | 
COc1nc(-c2ccc(C)cc2)ccc1-c1noc(-c2ccc(C(C)(C)C)cc2)n1 | inactive: -5.26% | 
Cc1cccc(N2CCN(C(=O)c3ccc4c(c3)c(C)c(C)n4C)CC2C)c1 (stereo not given) | inactive: -26.8% | 
Cc1ccc(NC(=O)c2cc(S(=O)(=O)N3CCCC3)c[nH]2)c(C)c1 | inactive: -14.7% | 
COc1ccc(OC)c(S(=O)(=O)NCCc2csc3nc(-c4ccccc4)nn23)c1 | inactive: -9.42% | 
COc1ccccc1N1CCN(c2cc(C)nc3nc(-c4ccc(Cl)cc4)nn23)CC1 | inactive: -15.7% | 
CCN(CC)CCCNC(=O)c1nn(-c2ccc(C)cc2)c(=O)c2c1c1ccccc1n2C | inactive: -0.604% | 
CCN(Cc1ccccc1)C(=O)c1sc2nc3n(c(=O)c2c1C)CCCC3 | inactive: -19.5% | 
CCOc1ccc(CNS(=O)(=O)c2ccc(-c3coc(C)n3)cc2)cc1OC | inactive: -37.3% | 
CCCCN(C)CCCNC(=O)Cn1ncc2c3ccccc3n(Cc3cc(C)ccc3C)c2c1=O | inactive: -30.4% | 
CCC(=O)N1c2ccc(S(=O)(=O)CCC(=O)Nc3ccc(Br)c(C)c3)cc2CC1C (stereo not given) | inactive: -29.7% | 
CCOCCCN(Cc1ccco1)C(=O)c1cc2c(=O)[nH]c3ccc(C)cc3c2s1 | inactive: -49% | 
COCCNC(=O)Cn1c(=O)n(CCCCCC(=O)Nc2ccccc2)c(=O)c2sccc21 | inactive: 14.6% | 
O=S(=O)(c1ccccc1)c1nnn2c1nc(NCc1ccccc1)c1sccc12 | inactive: -7.15% | 
COc1ccc(/C=C(\C#N)c2nc3ccccc3n2C)c(OC)c1 |  | active: 3.55 µM
Cc1ccc(Cl)cc1N1CCN(C(=O)CN2C(=O)CSc3c2c(C)nn3-c2ccccc2)CC1 | inactive: 3.08% | 

Compound | activity change, positive = activation | Potency
COc1cccc(NC(=O)c2cnc(SCC(=O)N3CCOCC3)n(C)c2=O)c1 | inactive: -25.3% | 
O=C(NCc1cccs1)c1ccc(Cn2c(SCc3ccc(F)cc3)nc3cccnc32)cc1 | inactive: -6.84% | 
COc1ccc(-c2cn3c(n2)sc2cc(C(=O)NCCc4ccc(OC)cc4OC)ccc23)cc1 | inactive: -30.4% | 
Cc1cccc2sc(N(CCCN(C)C)C(=O)COc3ccccc3)nc12 | inactive: -11% | 
COC(=O)c1ccccc1NC(=O)Cn1c(=O)n(-c2cccc(C(F)(F)F)c2)c(=O)c2c(C)c(C)sc21 | inactive: 10.4% | 
CCOc1ccc(N(CC)S(=O)(=O)N2CCCC(C(=O)NCCc3ccc(OC)cc3)C2)cc1 (stereo not given) | inactive: -31% | 
CCN(CC)S(=O)(=O)c1ccc2oc(C(=O)NCc3ccccc3OC)c(C)c2c1 | inactive: -20.5% | 
Cc1ccc(S(=O)(=O)NCC2CCC(C(=O)NCCc3ccc(Cl)cc3)CC2)cc1 (stereo not given) | inactive: -2.54% | 
Cc1ccc(C)c(N2CCN(C(=O)c3cc(S(=O)(=O)N4CCCCCC4)cn3C)CC2)c1 | inactive: -42.6% | 
COCCCNC(=O)c1ccc(Cn2c(SCc3cccc(C)c3)nc3cccnc32)cc1 | inactive: 13.3% | 
CCOC(=O)C1CCCN(C(=O)c2nn(-c3ccc(C)cc3)c(=O)c3c2c2ccccc2n3C)C1 (stereo not given) | inactive: 7.11% | 
CCCn1c(CCCNC(=O)c2ccccc2OC)nc2ccccc21 | inactive: -13% | 
O=C(/C=C\c1ccccc1)NC1CC(=O)N(c2ccccc2)C1 (stereo not given) | inactive: -6.21% | 
Cc1cc(C)c2c(n1)sc1c(=O)n(-c3cc(Cl)ccc3C)nnc12 | inactive: -43.1% | 
CC(=O)CCCCn1c(=O)c2c(ncn2C)n(C)c1=O | inactive: -3.03% | 
CCC1CCCCN1C(=O)Cn1c(=O)cc(C(F)(F)F)c2c(C)nn(C)c21 (stereo not given) | inactive: -31.4% | 
O=C1c2[nH]nc(-c3ccccc3O)c2C(c2ccc(F)cc2)N1CCO (stereo not given) | inactive: -14.3% | 
COc1ccc(OC)c(NC(=O)Cc2c(C(=O)O)n(C)c3ccc(C)cc23)c1 | inactive: -9.17% | 
CCOC(=O)c1c(C)sc(-c2c(-c3ccc(OC)c(F)c3)[nH]c3[nH]c(=O)[nH]c(=O)c23)c1O | inactive: -15.4% | 
COC(=O)c1cnn(-c2ccc(C(=O)Nc3cc(OC)c(OC)c(OC)c3)cc2)c1N | inactive: 0.157% | 
COc1ccc(-c2nc(SCC(=O)N3CCCCC3C)n[nH]2)cc1 (stereo not given) | inactive: -16.1% | 
CCOC(=O)c1cc(-c2ccc(OC)cc2)n(CCC(=O)Nc2nc3ccc(OCC)cc3s2)c1C | inactive: -20% | 
CCc1cccc(C)c1Nc1c(-c2cccc(O)c2)nc2nc(C)cc(C)n12 | inactive: -29.5% | 
CCc1ccccc1NC(=O)CSc1ncc(S(=O)(=O)c2ccc(C(C)C)cc2)c(N)n1 | inactive: -43.3% | 

Compound | activity change, positive = activation | Potency
Cc1ccc(CN(Cc2ccco2)C(=O)c2ccc(Cl)cc2)o1 | inactive: -32.5% | 
CCc1ccc(-n2c(=O)c3c(C)c(C(=O)N(C)C)sc3n(Cc3ccccc3C#N)c2=O)cc1 | inactive: -1.88% | 
CN(C/C=C/c1ccccc1)Cc1cccc2ccccc12 | inactive: -25.6% | 
COc1cc(Cl)c(C)cc1NC(=O)Cn1ncc2c3ccccc3n(Cc3ccccc3)c2c1=O | inactive: -10.9% | 
CCc1ccc(CNC(=O)c2c(C)oc3ncn(CC(C)C)c(=O)c23)cc1 | inactive: -27.6% | 
COc1ccc(C(=O)N2c3ccc(C)cc3C(C)(c3ccccc3)CC2(C)C)cc1 (stereo not given) | inactive: -38% | 
COc1ccc(CNC(=O)CCCn2c(=O)c3cccn3c3cccnc32)cc1 | inactive: 0.394% | 
CCN(CC)CCCNC(=O)CN1N=C(c2ccc(OC)cc2)CCC1=O | inactive: -0.942% | 
O=S(=O)(c1cccc(F)c1)N1CCC(Oc2ccc(-n3cnnn3)cc2)CC1 | inactive: -33.9% | 
CCOCCCNC(=O)c1c(NC(=O)Cc2coc3ccc(C)cc23)sc2c1CCC2 | inactive: -10.8% | 
CCc1ccc(S(=O)(=O)c2c(C(=O)c3ccccc3)cnc3ccc(CC)cc23)cc1 | inactive: -41.7% | 
COc1ccccc1CN1CCC(CNC(=O)c2cnn(-c3ccc(Cl)cc3)c2C2CCN(C(=O)OC(C)(C)C)CC2)CC1 | inactive: -13.5% | 
CC(C)c1ccc(OCC(O)CN2CCN(c3ccc(F)cc3)CC2)cc1 (stereo not given) | inactive: -38.1% | 
CCCCNS(=O)(=O)c1ccc2nc(-c3cccnc3)cc(C(=O)NCCOC)c2c1 | inactive: -9.56% | 
Cc1ccccc1NC(=O)c1ccc(Cl)c(S(=O)(=O)N2CCCCCC2)c1 | inactive: -32.1% | 
Cc1nn(CC(=O)N2CCN(c3cccc(C(F)(F)F)c3)CC2)c(=O)c2cccn12 | inactive: 1.99% | 
Cc1nn(C)c2c1c(C(F)(F)F)cc(=O)n2C(C)C(=O)NCc1ccccc1Cl (stereo not given) | inactive: -18.9% | 
COC(=O)c1sccc1S(=O)(=O)N(CC(=O)NCc1ccc(F)cc1)c1ccc(Cl)cc1 | inactive: -32.7% | 
COc1ccc(CNC(=O)c2ccc(CNS(=O)(=O)c3ccc(F)cc3)cc2)cc1 | inactive: -11.2% | 
Cc1ccc(NC(=O)Cn2nnc(C(=O)NCc3cccs3)c2N)cc1Cl | inactive: -1.91% | 
Cc1oc(-c2cccc(Cl)c2)nc1Cn1c(SCc2ccccc2F)nc2ccncc21 | inactive: 13.2% | 
Cc1cc(C)cc(NC(=O)Cn2c(C(F)(F)F)nc3ccccc32)c1 | inactive: -17.6% | 
Cc1ccccc1NC(=O)CSc1nnc(-c2cccs2)o1 | inactive: 7.83% | 
COc1ccc(CCNC(=O)c2ccc3c(c2)N(Cc2ccccc2C)C(=O)c2ccccc2S3)cc1OC | inactive: -26.2% | 

Compound | activity change, positive = activation | Potency
COc1ccccc1NC(=O)CSC1=Nc2ccccc2C2=NC(CC(=O)NCc3cccs3)C(=O)N12 (stereo not given) | inactive: -6.84% | 
Nc1c(CC(=O)O)cccc1C(=O)c1ccc(Br)cc1 | inactive: -0.948% | 
Cc1ccc(NC(=O)C2CCCN2S(=O)(=O)c2ccc3c(c2)CCCC(=O)N3)cc1Cl (stereo not given) | inactive: -37% | 
Cc1cccc(NC(=O)CSc2nc3ccc(NC(=O)COc4ccccc4F)cc3s2)c1 | inactive: -20.3% | 
OCCN1CCN(CCCN2c3ccccc3C=Cc3ccccc32)CC1 | inactive: -3.23% | 
C=CCNc1nc(NCC=C)nc(N2CCN(C(c3ccc(F)cc3)c3ccc(F)cc3)CC2)n1 | inactive: -25.2% | 
O=C(CSc1ccc2nc(-c3ccccc3)cn2n1)Nc1cccc(F)c1 | inactive: -46.8% | 
COc1ccc(NC(=O)c2c(NC(=O)Cc3ccccc3)sc3c2CCCC3)cc1 | inactive: -20.3% | 
COc1ccc(NC(=O)Cn2c(=O)n(Cc3ccc(C(=O)NCc4ccccc4Cl)cc3)c(=O)c3ccccc32)cc1 | inactive: -17.3% | 
COc1ccc(Cn2nnc3c(=O)[nH]c(C4CCN(C(=O)c5ccc(C)cc5)CC4)nc32)cc1OC | inactive: -20.8% | 
Cc1cc(F)ccc1NC(=O)Cn1c(=O)ccc2cc(S(=O)(=O)N3CCC(C)CC3)ccc21 | inactive: -31.9% | 
CCN(CC)CCCNC(=O)CN1N=C(c2ccccc2)CCC1=O | inactive: -11% | 
O=C(Nc1cccc(F)c1F)C1CCN(c2ncccn2)CC1 | inactive: -4.89% | 
CCSc1nn(CC(=O)Nc2ccc(C(=O)OC)cc2)c(N)c1S(=O)(=O)c1ccc(C)cc1 | inactive: -27% | 
COC(=O)c1cc2occc2n1CC(=O)Nc1ccc(C(C)C)cc1 | inactive: 4.02% | 
O=C(Nc1ccc(F)cc1)N1CCN(C(=O)c2nsc3ccccc23)CC1 | inactive: -26.4% | 
COC(=O)c1cc(NC(=O)c2ccc3c(c2)NC(=O)c2ccccc2S3)cc(C(=O)OC)c1 | inactive: -9.49% | 
COc1ccc(-c2nc3c(c(SCC(=O)N4CCCCC4)n2)Cc2c(CO)cnc(C)c2O3)cc1 | inactive: -14.1% | 
CSc1cccc(NC(=O)Cn2ncn3c(cc4ccccc43)c2=O)c1 | inactive: -13.2% | 
Cc1cccc(N2CCN(C(c3ccccc3)c3nnc(-c4ccccc4Cl)o3)CC2)c1C (stereo not given) | inactive: -13.4% | 
CCOc1ccccc1NC(=O)C(c1ccccc1)N1Cc2ccccc2C1=O (stereo not given) | inactive: 1.56% | 
Fc1ccccc1N1CCN(c2ncc3c(n2)CCN(Cc2cc(Br)cs2)C3)CC1 | inactive: -23.2% | 
Cn1nnc2c(N3CCN(c4cccc(C(F)(F)F)c4)CC3)ncnc21 | inactive: -22.1% | 
